Residue numbers refer to the chain shown, from its start.
T1: recombinant human sclerostin (human, UniProt Q9BQB4 24-213)
T1 construct: biotinylated in the ELISAs; also called hu sclerostin; hu scl
T1 sequence: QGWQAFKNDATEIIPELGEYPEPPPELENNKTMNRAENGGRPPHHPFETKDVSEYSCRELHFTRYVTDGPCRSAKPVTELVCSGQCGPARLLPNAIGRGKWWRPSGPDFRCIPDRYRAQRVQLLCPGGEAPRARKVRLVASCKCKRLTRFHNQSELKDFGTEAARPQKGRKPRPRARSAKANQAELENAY

B1: DVD2650 (bispecific antibody, human IgG1, kappa, lambda)
heavy: EVQLVESGGGLVQPGGSLRLSCAASGFTFSNYGVEWVRQAPGKGLEWVSGIWADGSTHYADTVKSRFTISRDNSKNTLYLQMNSLRAEDTAVYYCAREWQHGPVAYWGQGTLVTVSSASTKGPEVQLVESGGGLVQPGRSLRLSCAASGFTFDDYALHWVRQAPGKGLEWVSGIGWDEDMIDYADSVKGRFTISRDNAKNSLYLQMNSLRVEDTALYYCAGNNRGYGGLDVWGQGTTVTVSSASTKGPSVFPLAPSSKSTSGGTAALGCLVKDYFPEPVTVSWNSGALTSGVHTFPAVLQSSGLYSLSSVVTVPSSSLGTQTYICNVNHKPSNTKVDKKV[left out - human IgG1 Fc with changes]
light: DIQMTQSPSSLSASVGDRVTITCKASQLVSSAVAWYQQKPGKAPKLLIYWASTLHTGVPSRFSGSGSGTDFTLTISSLQPEDFATYYCQQHYRTPFTFGQGTKLEIKRTVAAPSVFIFPPQSVLTQPPSASGTPGQRVTISCSGSWSNIGSNTVNWYQQLPGTAPKLLIYNNNQRPSGVPDRFSGSKSGTSASLAISGLQSEDEADYYCAAWDDSLSGEYVFGGGTKLTVLGQPKAAPSVTLFPPSSEELQANKATLVCLISDFYPGAVTVAWKADSSPVKAGVETTTPSKQSNNKYAASSYLSLTPEQWKSHRSYSCQVTHEGSTVEKTVAPTECS
notes: DVD-Ig: outer AB437, inner MSL10-AM3.2
B2: DVD2645 (bispecific antibody, human IgG1, kappa, lambda)
heavy: EVQLVESGGGLVQPGGSLRLSCAASGFTFSNYGVEWVRQAPGKGLEWVSGIWADGSTHYADTVKSRFTISRDNSKNTLYLQMNSLRAEDTAVYYCAREWQHGPVAYWGQGTLVTVSSASTKGPEVQLVESGGGLVQPGRSLRLSCAASGFTFDDYALHWVRQAPGKGLEWVSGIGWEDDMIDYADSVKGRFTISRDNAKNSLYLQMNSLRVEDTALYYCAGNSRGYGGLDVWGQGTTVTVSSASTKGPSVFPLAPSSKSTSGGTAALGCLVKDYFPEPVTVSWNSGALTSGVHTFPAVLQSSGLYSLSSVVTVPSSSLGTQTYICNVNHKPSNTKVDKKV[left out - human IgG1 Fc with changes]
light: B1 light with W146S, S151G, N171S, S217E, E219S
notes: DVD-Ig: outer AB437, inner MSL10-AM2.2
B3: DVD2647 (bispecific antibody, human IgG1, lambda)
heavy: EVQLVESGGGLVQPGGSLRLSCAASGFTFSNYGVEWVRQAPGKGLEWVSGIWADGSTHYADTVKSRFTISRDNSKNTLYLQMNSLRAEDTAVYYCAREWQHGPVAYWGQGTLVTVSSGGGGSGGGGSEVQLVESGGGLVQPGRSLRLSCAASGFTFDDYALHWVRQAPGKGLEWVSGIGWDEDMIDYADSVKGRFTISRDNAKNSLYLQMNSLRVEDTALYYCAGNNRGYGGLDVWGQGTTVTVSSASTKGPSVFPLAPSSKSTSGGTAALGCLVKDYFPEPVTVSWNSGALTSGVHTFPAVLQSSGLYSLSSVVTVPSSSLGTQTYICNVNHKPSNTKVDKKV[left out - human IgG1 Fc with changes]
light: DIQMTQSPSSLSASVGDRVTITCKASQLVSSAVAWYQQKPGKAPKLLIYWASTLHTGVPSRFSGSGSGTDFTLTISSLQPEDFATYYCQQHYRTPFTFGQGTKLEIKRGGSGGGGSGQSVLTQPPSASGTPGQRVTISCSGSWSNIGSNTVNWYQQLPGTAPKLLIYNNNQRPSGVPDRFSGSKSGTSASLAISGLQSEDEADYYCAAWDDSLSGEYVFGGGTKLTVLGQPKAAPSVTLFPPSSEELQANKATLVCLISDFYPGAVTVAWKADSSPVKAGVETTTPSKQSNNKYAASSYLSLTPEQWKSHRSYSCQVTHEGSTVEKTVAPTECS
notes: as for B1
B4: DVD2642 (bispecific antibody, human IgG1, lambda)
heavy: EVQLVESGGGLVQPGGSLRLSCAASGFTFSNYGVEWVRQAPGKGLEWVSGIWADGSTHYADTVKSRFTISRDNSKNTLYLQMNSLRAEDTAVYYCAREWQHGPVAYWGQGTLVTVSSGGGGSGGGGSEVQLVESGGGLVQPGRSLRLSCAASGFTFDDYALHWVRQAPGKGLEWVSGIGWEDDMIDYADSVKGRFTISRDNAKNSLYLQMNSLRVEDTALYYCAGNSRGYGGLDVWGQGTTVTVSSASTKGPSVFPLAPSSKSTSGGTAALGCLVKDYFPEPVTVSWNSGALTSGVHTFPAVLQSSGLYSLSSVVTVPSSSLGTQTYICNVNHKPSNTKVDKKV[left out - human IgG1 Fc with changes]
light: B3 light with W143S, S148G, N168S, S214E, E216S
notes: as for B2
B5: DVD2643 (bispecific antibody, human IgG1, lambda)
heavy: EVQLVESGGGLVQPGGSLRLSCAASGFTFSNYGVEWVRQAPGKGLEWVSGIWADGSTHYADTVKSRFTISRDNSKNTLYLQMNSLRAEDTAVYYCAREWQHGPVAYWGQGTLVTVSSASTKGPEVQLVESGGGLVQPGRSLRLSCAASGFTFDDYALHWVRQAPGKGLEWVSGIGWEDDMIDYADSVKGRFTISRDNAKNSLYLQMNSLRVEDTALYYCAGNSRGYGGLDVWGQGTTVTVSSASTKGPSVFPLAPSSKSTSGGTAALGCLVKDYFPEPVTVSWNSGALTSGVHTFPAVLQSSGLYSLSSVVTVPSSSLGTQTYICNVNHKPSNTKVDKKV[left out - human IgG1 Fc with changes]
light: DIQMTQSPSSLSASVGDRVTITCKASQLVSSAVAWYQQKPGKAPKLLIYWASTLHTGVPSRFSGSGSGTDFTLTISSLQPEDFATYYCQQHYRTPFTFGQGTKLEIKRTVAAPQSVLTQPPSASGTPGQRVTISCSGSSSNIGGNTVNWYQQLPGTAPKLLIYSNNQRPSGVPDRFSGSKSGTSASLAISGLQSEDEADYYCAAWDDSLEGSYVFGGGTKLTVLGQPKAAPSVTLFPPSSEELQANKATLVCLISDFYPGAVTVAWKADSSPVKAGVETTTPSKQSNNKYAASSYLSLTPEQWKSHRSYSCQVTHEGSTVEKTVAPTECS
notes: as for B2

Target: T1, recombinant human sclerostin
Experiment: SPR
Description: (§1) The binding of antibodies or anti-sclerostin-TNF DVD to purified recombinant human, cynomolgus monkey (cyno), rat and mouse sclerostin and TNFα was determined by surface plasmon resonance-based measurements with a Biacore T100 or T200 instruments (GE Healthcare Life Sciences, Piscataway, N.J., USA) using running HBS-EP+ (10 mM HEPES [pH 7.4], 150 mM NaCl, 3 mM EDTA, and 0.005% surfactant P20) containing additional 150 mM NaCl, and/or 10 mg/ml carboxymethyl dextran, 0.1 mg/ml BSA at 25° C. All chemicals were obtained from GE Healthcare Life Sciences, Piscataway, N.J., USA or otherwise from a different source as described in the text. Approximately 10,000 RU (or 3000 RU when CM3 chip was used) of goat anti-mouse or anti-human IgG (Fcγ) fragment specific polyclonal antibody (Pierce Biotechnology Inc, Rockford, Ill.) diluted in 10 mM sodium acetate (pH 4.5) was directly immobilized across a CM5 (or CM3) research grade biosensor chip using a standard amine coupling kit according to manufacturer's instructions and procedures at 15 μg/ml. Unreacted moieties on the biosensor surface were blocked with ethanolamine. Modified carboxymethyl dextran surface in flowcells 2, 3 and 4 were used as a reaction surface. Modified carboxymethyl dextran in flow cell 1 was used as the reference surface. Biaevaluation T100 software version 2.0.2, GE Healthcare Life Sciences was used to simultaneously fit association and dissociation phases of all injections (using 1:1 fit analysis with local Rmax). Purified antibodies were diluted in running buffer for capture across goat anti-mouse or anti-human IgG specific reaction surfaces. Antibodies to be captured as a ligand (1 μg/ml) were injected over reaction matrices at a flow rate of 10 μl/minute. The association and dissociation rate constants, kon (unit M-1 s-1) and koff (unit s-1) were determined under a continuous flow rate of 50 μl/minute. […] At the end of each cycle the surfaces were regenerated with 10 s injection of 50 mM NaOH or/and by 10 s injection of 10 mM Glycine pH1.5 at a flow rate of 100 μl/min.

Binder	Kd [nM]	koff [s⁻¹]	kon [M⁻¹ s⁻¹]
B1	2.6	0.00013	51000
B2	0.75	6.3e-05	85000
B3	4.6	0.00021	46000
B4	1	6e-05	60000
B5	0.83	6.3e-05	76000

Target: T2, recombinant cynomolgus monkey sclerostin (cynomolgus monkey)
T2 construct: also called cyno sclerostin; Cyno sclerostin
Experiment: SPR
Description: as §1

Binder	Kd [nM]	koff [s⁻¹]	kon [M⁻¹ s⁻¹]
B1	1.4	0.00015	110000
B2	0.21	2.8e-05	130000
B3	3.1	0.00023	73000
B4	< 0.0067	< 1e-06	150000
B5	< 0.0059	< 1e-06	170000
